Among all 390,000 compounds or so, about 4,000 (1%) were called active. This list was built around the results that the source calls inconclusive (neither active nor inactive); the mix of calls is not that of the screen. Calls come from the whole dose curve; as a rule, active = well fitted inhibition curve with a large enough effect; inconclusive = small, poorly fitted or top-dose-only effect; inactive = no such curve, though single readings can be large or run the other way. A potency beside an inconclusive call is a rough fit, not a confirmed value.
Target: Thioredoxin reductase 1, cytoplasmic (Rattus norvegicus) (UniProt O89049)
Experiment: qHTS Assay for Inhibitors of Mammalian Selenoprotein Thioredoxin Reductase 1 (TrxR1): qHTS; note: nearly all actives have a fitted effect of over 65% in size
Details: recombinant rTrxR1, NADPH fluorescence consumption, selenite substrate; series mostly up to 114 µM
Summary of the method: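 Rat TrxR1 (90 nM in the dispensed reagent) was pre-reduced with 400 uM NADPH for 5 min at room temperature, then incubated with compound for 15 min. After 400 uM selenite was added, NADPH fluorescence (Ex 340/Em 450 nm) was followed for 8 min.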
Potency is the fitted concentration of half-maximal effect; tags give direction and shape of the fitted curve.

UniProt O89049, sequence (O89049 whole entry, looked up): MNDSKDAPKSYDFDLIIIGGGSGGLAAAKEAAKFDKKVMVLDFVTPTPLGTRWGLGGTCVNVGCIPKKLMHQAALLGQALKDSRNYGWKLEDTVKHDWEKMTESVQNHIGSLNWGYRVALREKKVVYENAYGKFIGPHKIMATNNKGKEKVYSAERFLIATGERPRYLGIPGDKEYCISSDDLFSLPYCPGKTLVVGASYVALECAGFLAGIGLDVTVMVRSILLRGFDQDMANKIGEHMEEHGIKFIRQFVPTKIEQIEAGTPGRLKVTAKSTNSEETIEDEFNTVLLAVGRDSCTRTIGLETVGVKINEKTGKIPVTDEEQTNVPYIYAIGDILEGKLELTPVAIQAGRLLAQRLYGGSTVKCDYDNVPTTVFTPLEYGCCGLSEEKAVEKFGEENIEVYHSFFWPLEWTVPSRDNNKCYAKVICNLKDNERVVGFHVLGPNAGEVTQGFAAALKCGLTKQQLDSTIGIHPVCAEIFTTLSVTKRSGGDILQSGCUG

Row | Compound | Potency
1 | CSc1nnc(C)c(=O)n1COC(=O)c1ccc(S(=O)(=O)N2CCCC2)cc1 | inconclusive: 56.2 µM [inhibitor, single point]
2 | COc1ccc(-c2cc3ncnc(Cl)c3s2)cc1 | inconclusive: 79.4 µM [inhibitor, single point]
3 | O=C(Nc1cccc(-c2nc3ccccc3s2)c1)C1=COCCO1 | inactive
4 | CCc1nc2ccc(C(=O)NCc3ccco3)cc2nc1CC | inconclusive: 39.8 µM [inhibitor, partial curve, poor fit]
5 | CCCCN(CC)Cc1c(O)ccc2c3c(c(=O)oc12)CCC3 | inconclusive: 89.1 µM [inhibitor, single point]
6 | CC(=O)Nc1ccc(S(=O)(=O)NC2(C(F)(F)F)C(=O)Nc3c2c(=O)[nH]c(=O)n3Cc2ccco2)cc1 (stereo not drawn) | inconclusive: 89.1 µM [inhibitor, single point]
7 | Cc1ccc(C(=O)Nc2ccc(Nc3ccccc3)cc2)cc1Br | inconclusive: 39.8 µM [inhibitor, single point]
8 | Cc1cc(Sc2nnc(/N=C/N(C)C)s2)c2ccccc2n1 | active: 2.51 µM
9 | N#Cc1c(-c2ccc3c(c2)OCO3)ccn2nc(-c3cccc(C(F)(F)F)c3)nc12 | inconclusive: 79.4 µM [inhibitor, single point]
10 | O=C(NCCCO)c1cc([N+](=O)[O-])cc2c1C=Cc1ccccc1O2 | inconclusive: 79.4 µM [inhibitor, partial curve, poor fit]
11 | Cc1ccc(S(=O)(=O)n2nc(OC(=O)c3ccccc3C)cc2N)cc1 | inactive
12 | O=C(CCN1C(=O)/C(=C/c2ccco2)SC1=S)Nc1ccc(O)cc1C(=O)O | inconclusive: 22.4 µM [inhibitor, single point]
13 | O=C(O)/C=C/c1cccc(B(O)O)c1 | inactive
14 | O=C(NCc1cccnc1)/C(=C\c1ccc(-c2ccc(Cl)c(Cl)c2)o1)S(=O)(=O)c1ccccc1 | inconclusive: 56.2 µM [inhibitor, partial curve, poor fit]
15 | CCOC(=O)c1cnc2ccc(C(=O)OC)cc2c1NCCc1ccc(OC)c(OC)c1 | inconclusive: 31.6 µM [inhibitor, single point]
16 | COc1ccc(/C=C(\C#N)C(=O)Nc2cc(S(=O)(=O)N3CCOCC3)ccc2N2CCCC2)cc1 | inactive
17 | COc1ccc(-c2nc(C#N)c(NCc3ccc(C)cc3)o2)cc1OC | inactive
18 | Cc1oc(-c2cccc(F)c2)nc1CN1CCCN(C(=O)c2ccco2)CC1 | inconclusive: 79.4 µM [inhibitor, single point]
19 | Cc1cccc(-n2c(-c3ccncc3)n[nH]c2=S)c1C | inconclusive: 11.2 µM [inhibitor, full curve]
20 | Cc1cc(C)c(C#N)c(SCCS(=O)(=O)c2ccc(C(C)(C)C)cc2)n1 | inactive
21 | Cc1cccc2cc(CN(Cc3ccco3)C(=O)c3ccco3)c(=O)[nH]c12 | inactive
22 | Cc1ccc(Cl)cc1NC(=O)c1ccc2snnc2c1 | inactive

Row | Compound | Potency
23 | O=C(Nc1cc(Cl)cc(Cl)c1)c1cc(S(=O)(=O)N2CCc3ccccc3C2)ccc1F | inactive
24 | Cc1ccc(CNS(=O)(=O)c2ccc(C(F)(F)F)cc2)n1C | inconclusive: 56.2 µM [inhibitor, partial curve, poor fit]
25 | C=CCOC(=O)C1=C(C)OC(N)=C(C#N)C1c1ccoc1 (stereo not drawn) | inconclusive: 0.316 µM [inhibitor, full curve, poor fit]
26 | O=C(CSc1nnc(-c2cnccn2)n1Cc1ccco1)c1ccc2ccccc2c1 | inconclusive: 50.1 µM [inhibitor, partial curve]
27 | COc1cccc(C(=O)O/N=C(\C)c2cnccn2)c1 | inconclusive: 89.1 µM [inhibitor, single point]
28 | COC(=O)CCc1sc(NC2CCCCC2)nc1-c1ccc(OC)cc1 | inconclusive: 89.1 µM [inhibitor, partial curve, poor fit]
29 | CC(C)(C)N1C(=O)c2ccc(C(=O)NCc3ccco3)cc2C1=O | inconclusive: 79.4 µM [inhibitor, single point]
30 | Cc1c([N+](=O)[O-])nnn1-c1cc(Cl)cc(Cl)c1 | active: 15.8 µM
31 | O=C(/C=C/c1ccc(O)c(O)c1)c1ccccc1O | inconclusive: 20 µM [inhibitor, partial curve, poor fit]
32 | CN(C)CC1CCC/C(=C\c2ccc(OC(=O)/C=C/c3ccccc3)cc2)C1=O (stereo not drawn) | inconclusive: 50.1 µM [inhibitor, single point]
33 | COc1ccc(C(CCN2CCCCC2)c2c(O)cc(OC)cc2OC)cc1 (stereo not drawn) | inconclusive: 31.6 µM [inhibitor, single point]
34 | O=C(CCNc1ccc(Cc2ccncc2)cc1)c1cccc([N+](=O)[O-])c1 | inconclusive: 7.94 µM [inhibitor, full curve, poor fit]
35 | CCOC(=O)C(NS(=O)(=O)c1ccccc1)(C(F)(F)F)P(=O)(OCC(C)C)OCC(C)C (stereo not drawn) | inconclusive: 56.2 µM [inhibitor, single point]
36 | Cc1ccc2nc(N3C(=O)C(O)=C(C(=O)c4ccc(C)o4)C3c3ccco3)sc2c1 (stereo not drawn) | inconclusive: 39.8 µM [inhibitor, partial curve, poor fit]
37 | C/C=C/Cn1c(SCCCc2ccccc2)nc2c1c(=O)[nH]c(=O)n2C | inactive
38 | CCC(C)(C)NC(=O)C(c1cccc(OC)c1OC)N(Cc1ccccc1)C(=O)CCC(=O)Nc1cc(C)on1 (stereo not drawn) | inactive
39 | CCOC(=O)C(C)On1c(-n2nc(C)cc2C)nc2ccccc2c1=O (stereo not drawn) | inconclusive: 89.1 µM [inhibitor, partial curve, poor fit]
40 | CCOc1cc(CN2CCN(c3ccc(C(C)=O)cc3)CC2)ccc1OC | active: 35.5 µM
41 | CN1Cc2cc(C(=O)c3ccccc3O)cnc2NC1=O | inconclusive: 70.8 µM [inhibitor, single point]
42 | O=C(CN1CCN(S(=O)(=O)c2ccccc2)CC1)NC1CC1 | inconclusive: 89.1 µM [inhibitor, partial curve, poor fit]
43 | O=C1c2cccc3c([N+](=O)[O-])ccc(c23)C(=O)N1c1ccc(Cl)cn1 | inconclusive: 14.1 µM [inhibitor, partial curve, poor fit]
